These results are taken from article PMC10380868, “Trapa bispinosa Roxb. Pericarp Extract Exerts 5α-Reductase Inhibitory Activity in Castrated Benign Prostatic Hyperplasia Model Mice” (International Journal of Molecular Sciences, 2023).

This assay has as its system AR-Luc/LNCaP cells. The assay is classed as cell-based.

Turning to `O=c1oc2c(O)c(O)cc3c(=O)oc4c(O)c(O)cc1c4c23` [EA, ellagic acid], the “inhibition of DHT-induced AR-Luc reporter activity” value is recorded as “suppressed to control levels”. In the case of `CC(C)(C)NC(=O)[C@H]1CC[C@H]2[C@@H]3CC[C@H]4NC(=O)C=C[C@]4(C)[C@H]3CC[C@]12C` [Fin, finasteride], the “inhibition of testosterone-induced AR-Luc reporter activity” value is on record as “suppressed”. With `CC(C)C(=O)Nc1ccc([N+](=O)[O-])c(C(F)(F)F)c1` [Flu, flutamide], the “inhibition of DHT-induced AR-Luc reporter activity” value is “completely” and the “inhibition of testosterone-induced AR-Luc reporter activity” value is given as “completely”. Regarding `C[C@]12CC[C@H]3[C@@H](CCC4=CC(=O)CC[C@@]43C)[C@@H]1CC[C@@H]2O` [testosterone], the “stimulation of AR-Luc reporter activity by agonist” value was “delayed stimulation” and the “time to maximal AR-Luc reporter activity” value was determined as 24 h.
